# Reference: the supplement of paper PMC8728848
# The list shows a part of the results.
# B1: Surfactant Protein D (Human); Neck + Carbohydrate Recognition Domain (NCRD) (Homo sapiens) (protein)
# chain: MLLFLLSALVLLTQPLGYLEAEMKTYSHRTMPSACTLVMCSSVESGLPGRDRDGREGPRGEKGDPGLPGAAGQAGMPGQAGPVGPKGDNGSVGEPGPKGDTGPSGPPGPPGVPGPAGREGALGKQGNIGPQGKPGPKGEAGPKGEVGAPGMQGSAGARGLAGPKGERGVPGERGVPGNTGAAGSAGAMGPQGSPGARGPPGLKGDKGIPGDKGAKGESGLPDVASLRQQVEALQGQVQHLQAAFSQYKKVELFPNGQSVGEKIFKTAQFVKPFTEAQLLCTQAGGQLASPRSAAENAALQQLVVAKNEAAFLSMTDSKTEGKFTYPTGESLVYSNWAPGEPNDDGGSEDCVEIFTNGKWNDVACGEKRLVVCEF
# How the values were obtained:
# Assay in all cases: glycan array binding signal (z-score within array); higher = stronger binding
# Conditions in all cases: glycan notation: IUPAC condensed, linker removed; mutation: R343V
# GlcA(b1-3)GlcNAc = molecular target: GlcA(b1-3)GlcNAc
# Procedure, shortened: (§1)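 The binding signal is a Z-score computed within each array. Data were drawn from 3228 arrays in the Consortium for Functional Glycomics database, restricted to those with a known protein sequence. Scores were averaged over arrays of the same protein sequence at different concentrations or buffers, and over linkers, and negative values can be taken as non-binding.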
# GlcA(b1-6)Gal = molecular target: GlcA(b1-6)Gal
# Procedure, shortened: as §1
# [1] = molecular target: GlcNAc(a1-3)Gal(b1-4)GlcNAc
# Procedure, shortened: as §1
# [2] = molecular target: GlcNAc(a1-6)Gal(b1-4)GlcNAc
# Procedure, shortened: as §1
# [3] = molecular target: GlcNAc(b1-2)Gal(b1-3)GalNAc
# Procedure, shortened: as §1
# [4] = molecular target: GlcNAc(b1-2)Man(a1-3)[GlcNAc(b1-2)Man(a1-6)]Man(b1-4)GlcNAc(b1-4)GlcNAc
# Procedure, shortened: as §1
# GlcNAc(b1-3)Gal = molecular target: GlcNAc(b1-3)Gal
# Procedure, shortened: as §1
# [5] = molecular target: GlcNAc(b1-3)Gal(b1-3)GalNAc
# Procedure, shortened: as §1
# GlcNAc(b1-3)Gal(b1-4)Glc = molecular target: GlcNAc(b1-3)Gal(b1-4)Glc
# Procedure, shortened: as §1
# [6] = molecular target: GlcNAc(b1-3)Gal(b1-4)GlcNAc
# Procedure, shortened: as §1
# [7] = molecular target: GlcNAc(b1-3)Gal(b1-4)GlcNAc(b1-3)Gal(b1-4)GlcNAc
# Procedure, shortened: as §1
# GlcNAc(b1-3)GalNAc = molecular target: GlcNAc(b1-3)GalNAc
# Procedure, shortened: as §1
# GlcNAc(b1-3)Man = molecular target: GlcNAc(b1-3)Man
# Procedure, shortened: as §1
# [8] = molecular target: GlcNAc(b1-3)[GlcNAc(b1-4)][GlcNAc(b1-6)]GlcNAc
# Procedure, shortened: as §1
# [9] = molecular target: GlcNAc(b1-3)[GlcNAc(b1-6)]Gal(b1-4)GlcNAc
# Procedure, shortened: as §1
# [10] = molecular target: GlcNAc(b1-3)[GlcNAc(b1-6)]GalNAc
# Procedure, shortened: as §1
# [11] = molecular target: GlcNAc(b1-4)Gal(b1-4)GlcNAc
# Procedure, shortened: as §1
# GlcNAc(b1-4)GlcNAc = molecular target: GlcNAc(b1-4)GlcNAc
# Procedure, shortened: as §1
# [12] = molecular target: GlcNAc(b1-4)GlcNAc(b1-4)GlcNAc
# Procedure, shortened: as §1
# [13] = molecular target: GlcNAc(b1-4)GlcNAc(b1-4)GlcNAc(b1-4)GlcNAc(b1-4)GlcNAc
# Procedure, shortened: as §1
# [14] = molecular target: GlcNAc(b1-4)GlcNAc(b1-4)GlcNAc(b1-4)GlcNAc(b1-4)GlcNAc(b1-4)GlcNAc
# Procedure, shortened: as §1
# [15] = molecular target: GlcNAc(b1-4)[GlcNAc(b1-6)]GalNAc
# Procedure, shortened: as §1
# [16] = molecular target: GlcNAc(b1-6)Gal(b1-4)GlcNAc
# Procedure, shortened: as §1
# GlcNAc(b1-6)GalNAc = molecular target: GlcNAc(b1-6)GalNAc
# Procedure, shortened: as §1
# GlcNAc3Prop(b1-4)GlcNAc = molecular target: GlcNAc3Prop(b1-4)GlcNAc
# Procedure, shortened: as §1
# Kdn(a2-3)Gal(b1-3)GlcNAc = molecular target: Kdn(a2-3)Gal(b1-3)GlcNAc
# Procedure, shortened: as §1
# Kdn(a2-3)Gal(b1-4)GlcNAc = molecular target: Kdn(a2-3)Gal(b1-4)GlcNAc
# Procedure, shortened: as §1
# [17] = molecular target: Man(a1-2)Man(a1-2)Man(a1-3)Man
# Procedure, shortened: as §1
# [18] = molecular target: Man(a1-2)Man(a1-2)Man(a1-6)[Man(a1-3)]Man
# Procedure, shortened: as §1
# Man(a1-2)Man(a1-3)Man = molecular target: Man(a1-2)Man(a1-3)Man
# Procedure, shortened: as §1
# [19] = molecular target: Man(a1-2)Man(a1-3)[Man(a1-2)Man(a1-6)]Man
# Procedure, shortened: as §1
# [20] = molecular target: Man(a1-2)Man(a1-3)[Man(a1-2)Man(a1-6)]Man(a1-6)[Man(a1-2)Man(a1-2)Man(a1-3)]Man
# Procedure, shortened: as §1
# [21] = molecular target: Man(a1-2)Man(a1-3)[Man(a1-2)Man(a1-6)]Man(a1-6)[Man(a1-2)Man(a1-2)Man(a1-3)]Man(b1-4)GlcNAc(b1-4)GlcNAc
# Procedure, shortened: as §1
# [22] = molecular target: Man(a1-2)Man(a1-3)[Man(a1-6)]Man(a1-6)[Man(a1-2)Man(a1-3)]Man(b1-4)GlcNAc(b1-4)GlcNAc
# Procedure, shortened: as §1
# [23] = molecular target: Man(a1-2)Man(a1-6)[Man(a1-3)]Man(a1-6)[Man(a1-2)Man(a1-2)Man(a1-3)]Man
# Procedure, shortened: as §1
# [24] = molecular target: Man(a1-2)Man(a1-6)[Man(a1-3)]Man(a1-6)[Man(a1-2)Man(a1-2)Man(a1-3)]Man(b1-4)GlcNAc(b1-4)GlcNAc
# Procedure, shortened: as §1
# Man(a1-3)[Man(a1-6)]Man = molecular target: Man(a1-3)[Man(a1-6)]Man
# Procedure, shortened: as §1
binder,measurement,setting,value
B1,glycan array binding signal (z-score),GlcA(b1-3)GlcNAc,-0.499
same,glycan array binding signal (z-score),GlcA(b1-6)Gal,-0.463
same,glycan array binding signal (z-score),[1],2.55
same,glycan array binding signal (z-score),[2],-0.497
same,glycan array binding signal (z-score),[3],-0.453
same,glycan array binding signal (z-score),[4],3.08
same,glycan array binding signal (z-score),GlcNAc(b1-3)Gal,-0.139
same,glycan array binding signal (z-score),[5],1.72
same,glycan array binding signal (z-score),GlcNAc(b1-3)Gal(b1-4)Glc,1.72
same,glycan array binding signal (z-score),[6],1.61
same,glycan array binding signal (z-score),[7],2.08
same,glycan array binding signal (z-score),GlcNAc(b1-3)GalNAc,-0.284
same,glycan array binding signal (z-score),GlcNAc(b1-3)Man,0.518
same,glycan array binding signal (z-score),[8],3.11
same,glycan array binding signal (z-score),[9],2.86
same,glycan array binding signal (z-score),[10],2.28
same,glycan array binding signal (z-score),[11],3.13
same,glycan array binding signal (z-score),GlcNAc(b1-4)GlcNAc,1.25
same,glycan array binding signal (z-score),[12],1.89
same,glycan array binding signal (z-score),[13],1.26
same,glycan array binding signal (z-score),[14],2.23
same,glycan array binding signal (z-score),[15],2.16
same,glycan array binding signal (z-score),[16],-0.423
same,glycan array binding signal (z-score),GlcNAc(b1-6)GalNAc,-0.416
same,glycan array binding signal (z-score),GlcNAc3Prop(b1-4)GlcNAc,-0.471
same,glycan array binding signal (z-score),Kdn(a2-3)Gal(b1-3)GlcNAc,-0.504
same,glycan array binding signal (z-score),Kdn(a2-3)Gal(b1-4)GlcNAc,-0.424
same,glycan array binding signal (z-score),[17],3.03
same,glycan array binding signal (z-score),[18],2.93
same,glycan array binding signal (z-score),Man(a1-2)Man(a1-3)Man,2.67
same,glycan array binding signal (z-score),[19],2.6
same,glycan array binding signal (z-score),[20],2.77
same,glycan array binding signal (z-score),[21],1.19
same,glycan array binding signal (z-score),[22],2.61
same,glycan array binding signal (z-score),[23],2.75
same,glycan array binding signal (z-score),[24],3.01
same,glycan array binding signal (z-score),Man(a1-3)[Man(a1-6)]Man,2.02
